# Test results from PubChem BioAssay AID1768 (National Center for Advancing Translational Sciences (NCATS), 2009).
# In all, about 270,000 compounds went through this assay and about 620 (0.23%) were called active. The inconclusive results got no clear call from the source; some entries with a clear call stand among them for comparison. The call rests on the fitted dose curve; in most records, active means well fitted inhibition curve with a large enough effect in the polarisation, with a control signal flat (not every such curve was filed as active); inconclusive means small, poorly fitted or top-dose-only effect, or effect the other way, or a change in a side signal; inactive means no such curve, though single readings can be large or run the other way; the % refers to the polarisation. Where the call is inconclusive, the potency comes from a doubtful curve fit. “Side channel” marks fits to a control or component signal instead of the main read-out.
# Target: Menin (Homo sapiens) (UniProt O00255)
# Test: qHTS Assay for Inhibitors Targeting the Menin-MLL Interaction in MLL Related Leukemias: Competition With Texas Red Labeled MLL-derived Mutant Peptide; on FP activity change, negative = inhibition: % of control where 0% means no effect
# Conditions: fluorescence polarization; FP activity change, negative = inhibition: at 61.6 µM (top of the series)
# Potency means the concentration at half of the fitted maximal effect; tags describe the fitted curve by direction and shape or compound fluorescence and quenching.
# Chain of UniProt O00255 (O00255 whole entry, looked up): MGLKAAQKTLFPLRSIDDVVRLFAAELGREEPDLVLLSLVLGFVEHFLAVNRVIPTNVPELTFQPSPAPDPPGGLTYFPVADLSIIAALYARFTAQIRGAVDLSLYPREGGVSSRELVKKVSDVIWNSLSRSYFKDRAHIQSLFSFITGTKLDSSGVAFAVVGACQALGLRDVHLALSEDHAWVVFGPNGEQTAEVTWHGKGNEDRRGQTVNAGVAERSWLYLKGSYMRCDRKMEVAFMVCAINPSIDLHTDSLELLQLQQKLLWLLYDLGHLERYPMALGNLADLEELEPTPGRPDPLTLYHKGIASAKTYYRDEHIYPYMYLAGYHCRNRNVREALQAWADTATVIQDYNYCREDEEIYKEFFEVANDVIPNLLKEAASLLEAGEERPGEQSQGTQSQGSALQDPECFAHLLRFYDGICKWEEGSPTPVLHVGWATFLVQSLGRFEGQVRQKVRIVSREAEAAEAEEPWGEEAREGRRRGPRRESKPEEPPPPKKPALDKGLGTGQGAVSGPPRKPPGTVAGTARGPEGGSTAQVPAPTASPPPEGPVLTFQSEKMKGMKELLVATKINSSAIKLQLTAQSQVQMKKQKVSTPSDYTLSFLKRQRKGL
Compound,Potency,"FP activity change, negative = inhibition"
COc1ccc(/C=N/NC(=O)CSc2nnc(C)n2-c2ccccc2)c(OC)c1OC,"inconclusive: 12.6 µM [inhibitor, partial curve]",–
C[C@@]12C=Cc3occc3[C@H]1CC[C@@]13C[C@@H](CC[C@H]12)[C@@](O)(CO)C3,–,inactive: 36.1%
CCc1ccc(CN(Cc2cccnc2)C(=O)/C=C/c2ccc(OC)cc2)cc1,"inconclusive: 11.2 µM [inhibitor, partial curve]",–
COCCNC(=O)/C(C#N)=C/c1c(N2CCN(c3ccc(OC)cc3)CC2)nc2c(C)cccn2c1=O,"inconclusive: 14.1 µM [inhibitor, partial curve]",–
Cc1ccc(NC(=S)N(CCCN2CCCC2)Cc2cccn2Cc2ccc(Cl)cc2)cc1C,"inconclusive: 8.91 µM [fluorescent, side channel, partial curve]",–
CCN(CC)c1ccc(C(=O)OCC(=O)N(C)Cc2ccccc2)cc1,"inconclusive: 25.1 µM [fluorescent, side channel, partial curve]",–
O=C1CCCN1CCCNC(=S)Nc1ccc(F)c(Cl)c1,"inconclusive: 8.91 µM [inhibitor, single point]",–
Cc1ccccc1NC(=S)Nc1ccc(Br)cc1,"inconclusive: 39.8 µM [quencher, side channel, single point]",–
COc1nc(N/N=C/c2cc3c(cc2Br)OCO3)nc(N2CCOCC2)n1,"inconclusive: 20 µM [inhibitor, single point]",–
CCn1c2ccccc2c2cc(NC(=O)c3ccccc3[N+](=O)[O-])ccc21,"inconclusive: 25.1 µM [quencher, side channel, partial curve]",–
O=C(O)c1ccc(NS(=O)(=O)c2cccc(C(=O)Nc3ccc(Br)cc3)c2)cc1,"inconclusive: 25.1 µM [quencher, side channel, single point]",–
C=CCc1cccc(C2C(C)CCC3C(=O)N4C(Cc5c([nH]c6ccccc56)C4c4cc(OC)c(OC)c(OC)c4)C(=O)N32)c1 (stereo unspecified),"inconclusive: 3.98 µM [quencher, side channel, partial curve]",–
COc1ccccc1C1C2=C(N=C3SCC(=O)N31)c1ccccc1CC2 (stereo unspecified),"inconclusive: 25.1 µM [inhibitor, single point]",–
COc1ccccc1NC1=NC2(CCCC2)N=C(N)N1,"inconclusive: 39.8 µM [inhibitor, single point]",–
COC(=O)c1ccc2c(c1)C(C)(C)C(/C=C/c1ccc(OC)c(OC)c1OC)=[N+]2C,"inconclusive: 22.4 µM [fluorescent, side channel, partial curve]",–
Cc1ccc(NC(=O)C(=O)NNC(=O)c2cccs2)cc1,–,inactive: 10.3%
Cc1ncoc1C(=O)N1CCCC(C(=O)c2ccc(C(F)(F)F)cc2)C1 (stereo unspecified),"inconclusive: 3.16 µM [quencher, side channel, full curve, poor fit]",–
CCCCSc1nnc(CNC(=O)C23CC4CC(CC(C4)C2)C3)n1Cc1ccccc1,"inconclusive: 8.91 µM [fluorescent, side channel, full curve, poor fit]",–

Compound,Potency,"FP activity change, negative = inhibition"
Cc1cc(C)nc(NS(=O)(=O)c2ccc(NC(=O)c3cc(-c4ccccc4)nc4ccccc34)cc2)n1,"inconclusive: 12.6 µM [quencher, side channel, partial curve]",–
Cc1cc(C)n(-c2nc(N(c3ccccc3)c3ccccc3)nc(-n3nc(C)cc3C)n2)n1,"inconclusive: 2.51 µM [fluorescent, side channel, full curve]",–
O=C1c2cccc3c(N4CCCCC4)ccc(c23)C(=O)N1CCO,"inconclusive: 10 µM [fluorescent, side channel, partial curve]",–
COc1ccc(NC(=S)NC(NC(=O)/C=C/c2ccccc2)C(Cl)(Cl)Cl)cc1 (stereo unspecified),"inconclusive: 39.8 µM [inhibitor, single point]",–
COc1ccc2[nH]c3c(Cl)ncnc3c2c1,–,inactive: -23.8%
COc1ccc(-n2c(N)c(C(=O)NCc3ccco3)c3nc4ccccc4nc32)c(OC)c1,–,inactive: 16.5%
O=C(CSc1nc2ccccc2s1)NNC(=S)Nc1ccc(Br)cc1,"inconclusive: 20 µM [quencher, side channel, partial curve]",–
CN1CCN(Cc2nc3ccccc3c(=O)n2Cc2nc(-c3ccc([N+](=O)[O-])cc3)cs2)CC1,"inconclusive: 20 µM [inhibitor, single point]",–
COc1ccc(C[C@H]2CN3C(=NC[C@@H]3C(C)C)N2CCNC(=O)CCC2CCCCC2)cc1,"inconclusive: 3.16 µM [fluorescent, side channel, full curve]",–
CC(NC(=O)[C@@H](NC(=O)[C@@H]1Cc2ccccc2CN1)C(C)C)c1ccccc1 (stereo partly specified),"inconclusive: 39.8 µM [quencher, side channel, single point]",–
COC(=O)CCc1sc(Nc2ccc(Br)cc2)nc1-c1ccc(OC)cc1,"inconclusive: 3.98 µM [quencher, side channel, partial curve]",–
COc1ccc(N=Cc2c(O)ccc3ccccc23)cc1,"inconclusive: 28.2 µM [quencher, side channel, single point]",–
CCOC(=O)c1c(-c2ccccc2)csc1NC(=O)C(C)NCCCN1CCOCC1 (stereo unspecified),"inconclusive: 20 µM [fluorescent, side channel, partial curve]",–
CCOc1ccc(-n2c(=S)sc3c(=O)[nH]c(SCC(=O)NCc4ccco4)nc32)cc1,"inconclusive: 25.1 µM [quencher, side channel, single point]",–
COc1ccc(C(=O)OCC(=O)Nc2cccc(C(C)=O)c2)c(OC)c1OC,–,inactive: -8.42%
COc1ccc(/C=N/NC(=O)c2ccn[nH]2)cc1CSc1ccccn1,"inconclusive: 22.4 µM [quencher, side channel, single point]",–
CCCN(CCC)C(=O)c1cc2c(=O)n3cccc(C)c3nc2s1,"inconclusive: 15.8 µM [inhibitor, partial curve]",–
Cc1cccc2c1ncc1c(=O)n(-c3ccccc3)[nH]c12,"inconclusive: 11.2 µM [quencher, side channel, partial curve]",–
